In the supplement of paper PMC12217912:
Some of the results follow. The full chains were built here from the parent and the listed change. Values near 0.05 are background.

B1: TEV protease; numbered along this chain (parent)
chain: MGESLFKGPRDYNPISSSICHLTNESDGHTTSLYGIGFGPFIITNKHLFRRNNGTLVVQSLHGVFKVKDTTTLQQHLVDGRDMIIIRMPKDFPPFPQKLKFREPQREERICLVTTNFQTKSMSSMVSDTSCTFPSGDGIFWKHWIQTKDGQCGSPLVSTRDGFIVGIHSASNFTNTNNYFTSVPKNFMELLTNQEAQQWVSGWRLNADSVLWGGHKVFMVKPEEPFQPVKEATQL

Variants of: B1
Experiment: raw area under fraction-flipped curve 0-4 h after induction (AUC4h, not background-subtracted), DNA-recorder readout of cleavage of the substrate (dimensionless); higher = more cleavage of the substrate by the protease variant
Settings: temperature: 34 °C; time window: 0-4 h after rhamnose induction
Experimental: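 In vivo DNA recorder in E. coli TOP10(DE3) ΔrhaA at 34 °C. Each TEVp single-site mutant (parent TEVp 0) is paired with a single-site variant of the 7-mer TEVs (canonical ENLYFQ|S). The substrate sits between flexible linkers in a Bxb1-sfGFP-TEVs-SsrA fusion, so cleavage stabilises Bxb1 and speeds flipping of a recombination array, read by NGS. The value is the raw area under the fraction-flipped curve over 0-4 h after rhamnose induction (AUC4h), with ≥20 reads per time point. It is not background-subtracted; inactive controls average about 0.047.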
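Further: Bxb1 expression induced with 0.2% (w/v) L-rhamnose at OD600 near 0.5, cultures sampled hourly, flipped fraction per protease–substrate barcode pair counted by paired-end Illumina sequencing.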

Row | Variant | area with substrate ENLYFAS | area with substrate ENLYFES | area with substrate ENLYFFS | area with substrate ENLYFHS | area with substrate ENLYFIS | area with substrate ENLYFMS | area with substrate ENLYFRS | area with substrate ENLYFTS | area with substrate ENLYFVS | area with substrate ENLYFCS | area with substrate ENLYFLS | area with substrate ENLYFNS | area with substrate ENLYFPS | area with substrate ENLYFSS | area with substrate ENLYFDS | area with substrate ENLYFWS | area with substrate ENLYFYS | area with substrate ENLYFGS | area with substrate ENLYFKS
1 | A196P | 0.0599 | 0.0535 | 0.0931 | 0.0488 | 0.0518 | 0.0282 | 0.0712 | 0.0577 | 0.0724 | – | – | – | – | – | – | – | – | – | –
2 | V165K | 0.0568 | 0.0637 | 0.0543 | 0.0527 | 0.048 | 0.0587 | 0.0561 | – | 0.0856 | 0.0578 | 0.0593 | 0.0733 | 0.0576 | 0.0421 | – | – | – | – | –
3 | L191R | 0.0413 | 0.0603 | 0.0574 | – | 0.0412 | 0.0646 | 0.0556 | – | 0.0648 | 0.0463 | 0.0492 | 0.0408 | 0.0463 | 0.0626 | 0.0466 | 0.0443 | 0.0726 | – | –
4 | L191W | 0.0584 | 0.0846 | – | – | 0.0474 | 0.0642 | – | 0.0712 | 0.0682 | 0.0671 | 0.0694 | – | – | – | 0.0548 | – | 0.0623 | 0.0681 | 0.1
5 | T174M | 0.06 | 0.0583 | – | – | 0.0604 | 0.0777 | – | 0.0577 | – | – | – | 0.0649 | 0.0601 | – | – | 0.0433 | – | 0.0607 | 0.0489
6 | G213E | 0.0471 | – | – | – | 0.0425 | 0.0474 | – | 0.06 | 0.0597 | – | – | – | 0.0571 | – | 0.0519 | – | 0.0549 | – | 0.0719
7 | G213P | 0.06 | – | – | – | 0.0514 | 0.0633 | 0.043 | – | – | 0.0491 | – | 0.029 | 0.0604 | – | – | 0.0782 | 0.0471 | – | –
8 | G213I | 0.0452 | 0.0588 | 0.0664 | – | 0.0494 | 0.0554 | 0.0539 | – | 0.0555 | 0.0549 | – | – | 0.0619 | – | – | – | – | – | 0.0601
9 | V210W | 0.0618 | – | 0.07 | – | 0.0611 | – | 0.0604 | – | 0.0642 | – | 0.0816 | 0.0382 | 0.0536 | – | – | – | – | – | 0.0557
10 | V210I | 0.0632 | 0.0628 | 0.0731 | – | 0.0414 | 0.032 | 0.0596 | – | – | 0.0553 | – | – | 0.0579 | 0.0616 | – | – | – | – | –
11 | M188K | 0.0522 | 0.058 | 0.0651 | 0.0452 | 0.0578 | 0.0408 | 0.069 | 0.0611 | 0.0595 | 0.0698 | – | – | 0.0665 | 0.0431 | 0.0656 | 0.0559 | – | 0.0569 | –
12 | R204Y | 0.0563 | 0.0673 | 0.0613 | – | 0.0531 | 0.04 | – | 0.0614 | – | 0.0646 | 0.0476 | 0.069 | 0.0641 | 0.0601 | 0.0604 | – | 0.0619 | 0.0521 | 0.0466
13 | W203H | 0.0644 | 0.0525 | 0.0717 | 0.0357 | 0.0559 | 0.0552 | 0.0627 | – | 0.0546 | – | 0.0649 | 0.0496 | 0.0519 | 0.0599 | 0.0477 | 0.0563 | 0.0605 | 0.0654 | –
14 | W203T | 0.057 | 0.0555 | – | – | 0.0656 | 0.0591 | 0.0613 | 0.0568 | 0.0425 | – | – | 0.0534 | 0.056 | 0.065 | – | 0.051 | – | – | 0.0649
15 | W203F | 0.0526 | 0.052 | – | 0.0828 | 0.0499 | 0.0506 | 0.0664 | – | 0.0633 | 0.0626 | – | 0.0658 | – | – | – | – | 0.0653 | 0.063 | –
16 | W203Q | 0.0589 | 0.0534 | – | – | 0.0505 | – | – | – | – | – | – | – | 0.0523 | – | – | – | 0.0505 | – | 0.0521

Row | Variant | area with substrate ENLYFAS | area with substrate ENLYFES | area with substrate ENLYFFS | area with substrate ENLYFHS | area with substrate ENLYFIS | area with substrate ENLYFMS | area with substrate ENLYFRS | area with substrate ENLYFTS | area with substrate ENLYFVS | area with substrate ENLYFCS | area with substrate ENLYFLS | area with substrate ENLYFNS | area with substrate ENLYFPS | area with substrate ENLYFSS | area with substrate ENLYFDS | area with substrate ENLYFWS | area with substrate ENLYFYS | area with substrate ENLYFGS | area with substrate ENLYFKS
17 | K185Y | 0.0473 | 0.062 | 0.0815 | 0.0619 | 0.0461 | 0.0607 | 0.0704 | 0.0668 | – | 0.0623 | 0.0491 | – | 0.0792 | 0.0546 | 0.0339 | 0.0483 | 0.0508 | 0.0779 | 0.0525
18 | K185D | 0.0611 | – | – | 0.0703 | 0.0569 | – | 0.0641 | 0.0816 | 0.0531 | 0.0489 | – | – | – | – | – | – | – | – | –
19 | K185R | 0.074 | 0.0819 | – | – | 0.0558 | 0.0603 | 0.0503 | – | – | 0.0594 | – | – | – | 0.0606 | – | – | – | – | 0.0485
20 | L205C | 0.0036 | 0.0579 | – | 0.0641 | – | 0.0649 | – | 0.0508 | – | – | – | 0.0597 | 0.0428 | – | – | 0.0643 | – | – | –
21 | I167M | 0.0731 | – | 0.0449 | 0.0612 | 0.046 | 0.0527 | – | 0.0572 | 0.0531 | 0.063 | – | 0.0574 | – | – | 0.0586 | – | – | – | 0.0573
22 | I167P | 0.0216 | 0.0511 | 0.0501 | – | – | 0.049 | – | – | – | – | – | – | – | – | 0.0477 | – | 0.0421 | – | 0.0382
23 | I167L | 0.0621 | 0.0541 | 0.06 | 0.055 | 0.057 | 0.0633 | 0.0539 | – | 0.0463 | – | – | – | 0.0613 | 0.0643 | – | 0.0646 | 0.0714 | – | 0.0328
24 | I167Q | 0.0908 | 0.0818 | – | 0.067 | 0.046 | 0.0614 | – | 0.0645 | 0.0625 | – | – | – | – | – | 0.0485 | 0.0506 | 0.0589 | – | –
25 | S169L | 0.0641 | 0.0618 | 0.0599 | – | 0.0507 | 0.0566 | 0.057 | – | 0.0571 | 0.0583 | – | – | – | – | – | – | – | 0.053 | 0.0563
26 | S169H | 0.055 | 0.0562 | 0.0778 | – | 0.059 | 0.0545 | – | – | – | 0.0534 | – | 0.0571 | 0.0525 | 0.0661 | – | – | 0.0568 | – | –
27 | N172D | 0.0814 | 0.0659 | 0.0681 | – | 0.0568 | 0.0656 | – | 0.0597 | 0.0522 | 0.0705 | – | 0.0541 | – | – | – | 0.0636 | – | 0.065 | 0.0464
28 | L211E | 0.0637 | – | – | – | 0.0656 | 0.0656 | 0.0651 | 0.0278 | 0.0778 | – | – | – | 0.0588 | 0.0519 | 0.0618 | 0.061 | – | – | 0.101
29 | W199T | 0.0606 | 0.0409 | 0.0687 | 0.0522 | 0.0599 | – | 0.0589 | 0.062 | – | 0.0468 | – | 0.0731 | 0.0687 | 0.0732 | – | – | 0.0789 | – | 0.0515
30 | N206V | 0.067 | 0.0676 | 0.0498 | 0.0598 | 0.0651 | 0.0539 | – | 0.0572 | – | 0.0567 | 0.0491 | 0.0573 | – | 0.0551 | 0.0607 | 0.0464 | – | – | –
31 | N206D | 0.0621 | 0.0687 | 0.0665 | – | 0.0577 | 0.0763 | 0.0644 | 0.0654 | 0.0566 | 0.062 | 0.0694 | 0.0757 | 0.0532 | 0.0626 | 0.0462 | 0.0531 | 0.0252 | – | –
